# Assay results published in the BET-seq Pho4 binding data (Le et al. 2018).
# This is one part of the list. Values were computed here from the reads of four pooled replicates and scatter widely.
# Target: T1, Pho4 (S. cerevisiae) (UniProt P07270)
# T1 sequence: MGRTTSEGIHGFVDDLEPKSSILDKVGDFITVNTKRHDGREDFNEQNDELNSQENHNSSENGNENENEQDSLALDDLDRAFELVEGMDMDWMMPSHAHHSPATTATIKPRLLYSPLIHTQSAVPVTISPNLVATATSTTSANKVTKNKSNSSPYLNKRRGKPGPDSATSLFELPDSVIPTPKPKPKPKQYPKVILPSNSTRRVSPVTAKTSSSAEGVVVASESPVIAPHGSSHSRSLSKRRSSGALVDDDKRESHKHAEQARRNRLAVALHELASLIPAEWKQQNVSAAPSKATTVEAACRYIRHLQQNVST
# Test: relative binding free energy (BET-seq); higher = weaker binding
# Conditions: reference: library average
row,Sequence,relative binding free energy [kcal/mol]
1,GGGGGCACGTGATTAG,0.02
2,TGTTTCACGTGGGAAC,0.16
3,ACCTGCACGTGTGGGG,0.05
4,AGGTGCACGTGCAGGT,-0.2
5,CGGGGCACGTGTTGCT,-0.14
6,AGGTGCACGTGTCGCG,0.11
7,AGGTTCACGTGTCGCT,0.19
8,GGTATCACGTGAGGGT,0.45
9,CTGAGCACGTGGGTTT,-0.18
10,AAGTTCACGTGACGTG,0.31
11,GCGGGCACGTGGGCTT,-0.28
12,GGTGCCACGTGGGATT,-0.09
13,GGATTCACGTGTCGGC,0.32
14,GGATACACGTGGTTGG,0.1
15,TGTTACACGTGCGTGT,-0.07
16,ATCGTCACGTGGGATT,0
17,AAGTACACGTGAAATG,0.47
18,GTAATCACGTGGATTT,0.13
19,AAGTGCACGTGTCAGT,-0.03
20,TGAGTCACGTGTGTGA,0.13
21,AGTTGCACGTGGGGCA,-0.1
22,TTTGGCACGTGACTAT,0
23,ATGGACACGTGGAGCG,0.02
24,GGAAGCACGTGTAGGT,-0.04
25,TTTATCACGTGGTGGC,0.02
26,TGAATCACGTGATTTT,0.24

row,Sequence,relative binding free energy [kcal/mol]
1,TGTATCACGTGAACTG,0.37
2,CGTTTCACGTGGAGTA,0.34
3,GTGGGCACGTGTTCGA,-0.05
4,TAATTCACGTGGTAGA,0.03
5,TTGTTCACGTGATCGT,0.4
6,GGTGTCACGTGGTACA,0.04
7,TAATCCACGTGTGTTG,0.04
8,TCTCGCACGTGTTGGG,-0.03
9,ACGGTCACGTGGTTTG,0.15
10,AGCGTCACGTGGTAGA,0.02
11,GGGACCACGTGTGGCG,0.05
12,AGGGACACGTGTAAGT,0.08
13,TGGGCCACGTGTTGGG,0.03
14,AGAAGCACGTGGGAGG,-0.12
15,CGTATCACGTGATGTG,0.21
16,GGCGGCACGTGCTGGG,-0.15
17,TAGGGCACGTGATGTA,0.02
18,GTGTCCACGTGTTTGC,0.16
19,TTAGTCACGTGGGTAA,0
20,GGGGTCACGTGGCCAG,0.02
21,AATCGCACGTGGGTTG,-0.18
22,CCGTTCACGTGGCGGG,0.23
23,TGTGGCACGTGCGGTG,-0.12
24,TTTTGCACGTGAGTGC,0.19
25,GGCGGCACGTGCTTGT,-0.03
26,TTCTTCACGTGTGAGC,0.48

row,Sequence,relative binding free energy [kcal/mol]
1,GTTTTCACGTGGTGCA,0.35
2,TTTGTCACGTGTAATA,0.23
3,GTGGACACGTGTGGCA,0.1
4,TGTTACACGTGGTGAA,0.02
5,TGCGGCACGTGGCCGG,-0.23
6,AAAGTCACGTGATGGG,0.18
7,CTTTGCACGTGTAATT,-0.01
8,AGTTGCACGTGTGTAC,-0.07
9,TTACTCACGTGTCGGG,0.18
10,AGTATCACGTGTAGGA,0
11,CAGGTCACGTGAGAGG,0.27
12,CGGTTCACGTGTAGTG,0.12
13,TCAAGCACGTGTGGGG,0.01
14,CAGGGCACGTGATGTT,-0.04
15,GATGGCACGTGGTGAT,-0.07
16,AAAGGCACGTGTCGAG,-0.06
17,GTGATCACGTGGGATC,0.12
18,CGGTGCACGTGATTAG,0.12
19,TCTGCCACGTGGGGCA,-0.02
20,ATGGGCACGTGCAGGT,-0.36
21,GATCTCACGTGAGGTG,0.38
22,TTAAGCACGTGGGCTG,-0.3
23,TGGTGCACGTGAAGTC,0.11
24,GAGAACACGTGGGGGT,0.04
25,CGTGTCACGTGATCGT,0.14
26,TAGTTCACGTGTTAGT,0.28

row,Sequence,relative binding free energy [kcal/mol]
1,AGTATCACGTGGTGTA,-0.06
2,GTTTGCACGTGGTTTT,0.06
3,ACTAGCACGTGGTTTG,-0.04
4,GTTCGCACGTGTTTTG,0.07
5,GCTAGCACGTGGGGGG,-0.11
6,CTAAACACGTGTTGGG,0.08
7,TTGGTCACGTGGGAGG,-0.06
8,GGGTCCACGTGATTTG,0.3
9,CAGTTCACGTGTTTAG,0.33
10,GTTCTCACGTGTGGCT,0.24
11,CGTGTCACGTGTTAGT,0.1
12,GTATGCACGTGGTATA,-0.12
13,AAGTTCACGTGGAAAT,0.4
14,GTTGGCACGTGGGGCG,-0.14
15,GTGCGCACGTGTGCAG,-0.11
16,TTGTGCACGTGGGATG,-0.09
17,TTGTTCACGTGCCTTT,0.1
18,CAGTGCACGTGGAAGT,-0.03
19,TATGTCACGTGGGTCA,-0.14
20,AGTAACACGTGGAATT,0.18
21,ACGGACACGTGGTGGC,0
22,GGCATCACGTGTTAGG,0.2
23,TATCACACGTGTTGGG,-0.1
24,CGAATCACGTGGGTTG,0.09
25,GTTTGCACGTGTGAAT,0.16
26,GGAGTCACGTGGTCGG,0.1

row,Sequence,relative binding free energy [kcal/mol]
1,TGTTGCACGTGGAGTT,0.07
2,ATTGTCACGTGGGTGG,-0.02
3,TTGTTCACGTGTTGAC,0.21
4,TGGGTCACGTGACTTT,0.16
5,TTAGGCACGTGTGCGC,-0.09
6,GGTGACACGTGGTTGG,0
7,GGATGCACGTGACGTG,0.11
8,GTAGTCACGTGCGAAG,0.15
9,GTATGCACGTGATGGA,0.15
10,TGTTGCACGTGACTAT,0.1
11,CCTTGCACGTGGTTGT,-0.1
12,TGTGTCACGTGGTAGC,-0.01
13,TTGGGCACGTGTGTGA,-0.02
14,GCAGTCACGTGGTTTT,0.19
15,ATTTTCACGTGCAGGT,0.29
16,ACGTGCACGTGGGCAT,-0.17
17,CGACTCACGTGGGTTA,0.21
18,GTTAGCACGTGCTTAG,0.08
19,TGAGTCACGTGACGGA,0.15
20,AGTAGCACGTGTTGAA,0.02
21,TGTATCACGTGCTTAT,0.15
22,GTACGCACGTGGTGGG,-0.27
23,TAATGCACGTGAGTAA,0.15
24,ATTTTCACGTGTCGAT,0.28
25,AGTTACACGTGCTGGT,0.1
26,GGGGACACGTGAGCAG,0.26

row,Sequence,relative binding free energy [kcal/mol]
1,GAGGGCACGTGGGAGG,-0.08
2,ATCATCACGTGGATGG,0.15
3,ATAGGCACGTGACGGT,-0.04
4,ACTAGCACGTGGGGGT,-0.18
5,GGAGTCACGTGGTCGC,0.06
6,GGATACACGTGGGTTC,0.01
7,GCAATCACGTGTTGTG,0.2
8,GATGACACGTGGGTTG,-0.01
9,CTTGTCACGTGAGATG,0.18
10,TTGGACACGTGGATGT,0.08
11,TGGCGCACGTGTTGAG,-0.08
12,TATGGCACGTGGGATA,-0.14
13,GGTGCCACGTGTAGAT,0.15
14,TTGGGCACGTGAAGTA,0.17
15,GTATTCACGTGCCGGT,0.33
16,GGTGACACGTGGTGCA,-0.13
17,GGTGCCACGTGTTTTG,0
18,AGATTCACGTGGGGCA,0.03
19,CGTTGCACGTGCTGGA,-0.06
20,CTTATCACGTGAATTG,0.26
21,TAGAGCACGTGCGGAG,-0.05
22,ATTGACACGTGTGGCG,0.12
23,ATCGTCACGTGATGTG,0.16
24,TGGTCCACGTGGGAAG,-0.09
25,AATGGCACGTGGGCGG,-0.12
26,AAGTCCACGTGATGGT,0.09

row,Sequence,relative binding free energy [kcal/mol]
1,AGGATCACGTGTGATG,0.29
2,TAGTTCACGTGAAGTG,0.32
3,GTGGCCACGTGTTGAG,0.03
4,GTATACACGTGCGGGG,-0.03
5,AGCGGCACGTGGGGTT,-0.17
6,ATGTTCACGTGCGTTC,0.28
7,TGGGACACGTGAGTTT,0.26
8,TGGGTCACGTGCAGGC,0.12
9,GTACACACGTGTGTTT,0.02
10,TGTGGCACGTGGTCAA,-0.36
11,GTAAACACGTGGGGGT,-0.01
12,GGATGCACGTGTGCTG,-0.02
13,TGGGGCACGTGTCAGA,-0.16
14,TCGTTCACGTGGGGGG,0.21
15,GTATACACGTGGTTTG,0.01
16,AGGATCACGTGGGAAT,0.04
17,ATACGCACGTGTGGTT,-0.22
18,TTTTACACGTGGATAT,0.08
19,TATTGCACGTGTTTCT,0.05
20,TGCAGCACGTGGATGA,0.03
21,GAGTCCACGTGTGGGG,0.18
22,GAGGTCACGTGGTCTA,0.05
23,GTATGCACGTGTTTTT,0.09
24,CGGCTCACGTGGTTAT,0.08
25,TGGTGCACGTGGCTTA,-0.17
26,ATTCTCACGTGGTTTG,0.16

row,Sequence,relative binding free energy [kcal/mol]
1,AATTACACGTGGCGTT,0.03
2,GAGATCACGTGGATTG,0.23
3,GGTTGCACGTGGCATT,-0.07
4,ATTTTCACGTGTAGGA,0.23
5,GCACACACGTGTTGGG,0.21
6,AGATACACGTGAGGCG,0.36
7,GTTGCCACGTGGGGTC,-0.16
8,TGGATCACGTGCGGGC,0.05
9,GGTTTCACGTGTAATG,0.32
10,TTCGGCACGTGGAAAG,-0.08
11,GAGTGCACGTGGAAGT,0.12
12,GGTAGCACGTGGTGGA,-0.07
13,AGAGGCACGTGGCTTA,-0.13
14,GTATTCACGTGGCGCT,0.18
15,TTAATCACGTGTTGTT,0.13
16,GGGTGCACGTGCTGGC,-0.04
17,TGGTGCACGTGGGAGC,-0.1
18,TTTATCACGTGTACTG,-0.01
19,TGCGGCACGTGCGAGT,-0.03
20,GTTGCCACGTGTTTAT,-0.12
21,AGCTTCACGTGGCGTG,0.16
22,GGTGCCACGTGTAGGA,-0.15
23,TGGACCACGTGGGTCG,-0.17
24,AAGATCACGTGATGGT,0.22
25,ATAGTCACGTGGGGTA,-0.13
26,TTATGCACGTGCGGGG,-0.12

row,Sequence,relative binding free energy [kcal/mol]
1,TGCTGCACGTGGGGGC,-0.17
2,GGAAACACGTGGTTGT,0.05
3,GCTGGCACGTGCAGGG,-0.07
4,CTGTGCACGTGTTAGG,0.06
5,CCGTTCACGTGGTGGG,0.15
6,TGATACACGTGTGCTT,0.1
7,TTAAGCACGTGCAGTT,-0.17
8,AGCTGCACGTGCAGGG,0
9,TGTGACACGTGGAATG,0.05
10,AAGATCACGTGTTTGT,0
11,GTCATCACGTGATGTT,0.23
12,GTTGTCACGTGGTGAA,0.06
13,AGGCTCACGTGTGTGA,0.27
14,ATTAGCACGTGGTCGT,-0.21
15,ACCATCACGTGTGGGG,0.23
16,GATGCCACGTGGTGTA,-0.11
17,TTAGGCACGTGTTCTA,-0.14
18,GTATGCACGTGTAGGT,0.02
19,GCGTTCACGTGTTTTG,0.38
20,TTAGCCACGTGGGTTG,-0.19
21,GTTTGCACGTGAGTCA,0.14
22,TGTGGCACGTGCAGAT,-0.07
